From the supplement of paper PMC10126150 come the findings set out here.

Values marked as one replicate rest on one cluster of the flow cell; about a third of the high ones do not repeat.

For this data set, the system named is ATP. Nature of the data set: switch fluorescence ratio, 500 uM ATP over buffer (Cy3 cluster intensity, sum of 5 cycles each) (fold (ratio)); higher = stronger signal-on switching upon ATP binding; sequences stand for … in TCGTCGGCAGCGTCAGATGTGTATAAGAGACAGTTTTTTTTTTTTTTTTTTTTTTTTT…TC. Particulars: aptamer strand: ATP DNA aptamer (quencher-CACCTGGGGGAGTATTGCGGAGGAAGG + anchor), 100 nM annealed; ATP concentration: 500 uM; one replicate. An outline of the steps:
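Values give the fluorescence ratio for each switch-domain sequence, averaged from per-cluster ratios of summed target-cycle to summed buffer-cycle Cy3 intensity. The Cy3-labelled switching-strand clusters sat on a modified Illumina MiSeq flow-cell, were annealed to 100 nM quencher-labelled ATP aptamer, and were imaged in selection buffer, then after 15 min with 500 uM ATP at 22 °C. Five cycles ran with NaOH stripping and re-annealing between them, and clusters outside 100-1000 RFU were excluded.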
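Note: ATP exposure 15 min at 22 °C before imaging.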

Turning to AAATATGTGC, the switch fluorescence ratio was 1.

Turning to TGAAATCACA, the switch fluorescence ratio stood at 1. In the case of CAGGATGACT it was 1.03. Turning to CTGCGCGGGA, the switch fluorescence ratio stood at 1.08. In the case of TTTGCTGTCT it was 0.991; in that of GAAGTAAAGC, 1.17; in that of AACTCAATCG, 0.964. Turning to GTATATCAAG, the switch fluorescence ratio is 1. In the case of GCAGAGGGGC it was 0.973; in that of CTAGGGTCCT, 1.01; in that of AGTGAATGGT, 1.02. Under CGTGTTTGTC stands 1.05; under TTAATGCCGC, 1.01; under GGCGAGGGA, 1.01.

For the sequence CATATATTCG, the switch fluorescence ratio was determined as 1. Under CAGTGAAGAG stands 0.999; under AACACAGGGA, 1.07. As for TGGAGGATAG, the switch fluorescence ratio is 1. In the case of CATTCCTATT it was 0.991; in that of ACTAGCAGAT, 1.05. Under TGAATTACGG stands 1.07; under CTTTGACGTA, 1; under TATAGTTGTC, 1.07. With TGGTTAAAGC, the switch fluorescence ratio came out at 0.976. In the case of GCCGTAGGAT it was 0.964; in that of TTCATTGTCA, 1; in that of GGCCCGGATT, 1.05. For TGAAGTGGCA, the switch fluorescence ratio stood at 1.

Consider CCGATATAGT, for which the switch fluorescence ratio worked out at 1.39. Under TGGACTAGTG stands 0.953.

In the case of CGGGTCCTGT, the switch fluorescence ratio amounted to 0.967. In the case of CACTTCTAAC it was 1.09. In the case of AGCGCCTGAC it was 1.19. For TGGATTGAG, the switch fluorescence ratio was 1.02. For AACGCGGGCT, the switch fluorescence ratio was found to be 1.04. Under GTATGAGGCA stands 0.98; under GACGTTTAGG, 1.02; under AACATAATGG, 0.986.

Take TTCAACTTTC: the switch fluorescence ratio is 1.09.

With TGCGTTCACG, the switch fluorescence ratio is 0.979. For the sequence ATTTATGGTC, the switch fluorescence ratio is 0.965. AATCACCGAA: the switch fluorescence ratio worked out at 1. In the case of GGGGCGGTCA, the switch fluorescence ratio is 1.

With GGCGAGACCC, the switch fluorescence ratio was 1.09.

GCAGGAGTCT: the switch fluorescence ratio came to 1.06. Regarding TTCCTTAT, the switch fluorescence ratio was found to be 1.01.

In the case of GAGCGGCCAC, the switch fluorescence ratio amounted to 1.02. Turning to GGGGCATGAA, the switch fluorescence ratio came to 0.988.

In the case of ACGAGATGCC, the switch fluorescence ratio worked out at 1.03. In the case of ACGCGTCCAT it was 1.04; in that of AGATATGGGG, 0.958; in that of ACTAGACTTG, 1.01.

With TTAGACAGGC, the switch fluorescence ratio was found to be 0.975. Take AAATGTTTGA: the switch fluorescence ratio came to 0.984.

Take GCCGTTCTGT: the switch fluorescence ratio amounted to 0.978.

Regarding ATTTGCCCTT, the switch fluorescence ratio amounted to 1.07. In the case of ATGATAAAAG it was 1.04. As for TGATATAGTT, the switch fluorescence ratio was determined as 0.986.

As to CACTACAGTC, the switch fluorescence ratio came out at 1.01. As for ACTGCGTATT, the switch fluorescence ratio was found to be 1.01. On to CTTATACAT, for which the switch fluorescence ratio came to 1.02. In the case of AATCATATTC it was 1.04.

For AACAGATGTT, the switch fluorescence ratio worked out at 0.969. For the sequence CGGGTAGCAT, the switch fluorescence ratio was 1.05.

Regarding ATTCGATAT, the switch fluorescence ratio stood at 1.01. In the case of CTGTGTGAGC, the switch fluorescence ratio came out at 1.01. In the case of ACTACTGTTA it was 1.04. In the case of TTAAAACCCG, the switch fluorescence ratio was 1.08. In the case of TTAAGAAAAC it was 1.02; in that of GGGAGTCGAT, 0.996; in that of GACTGGGCTA, 1.05.

Turning to TCGCACACGG, the switch fluorescence ratio is 1.24.

For the sequence GGGATGGTCT, the switch fluorescence ratio worked out at 0.949. With TAGACGGGTA, the switch fluorescence ratio came out at 0.98. In the case of ACGGCTGGTC it was 0.961. As to TTAAGGACAG, the switch fluorescence ratio is 1.02. For the sequence GGCGAGCCAG, the switch fluorescence ratio was determined as 1.04. On to TAAACTACT, for which the switch fluorescence ratio stood at 1.04. In the case of GACGTGTACA, the switch fluorescence ratio is 1.07. Under GGCAGTGGTC stands 0.984; under GAATCGGTTT, 1. Turning to ATATCAGTTA, the switch fluorescence ratio came out at 0.975.

With GAAATTTCAA, the switch fluorescence ratio was 0.994. In the case of TGGACAGGAT it was 1; in that of CCCCTGCAG, 2.14; in that of TATAGATCCC, 0.965. As for GGTCCAATGA, the switch fluorescence ratio was 1.05.

Turning to TGGAGGCATA, the switch fluorescence ratio turned out to be 0.984. In the case of GTTGCTGTCT it was 0.977; in that of CGGGGCGTA, 1.04; in that of GATAGGTCG, 1.02. Under TTTGGCCAGT stands 0.996; under TAACGAAATA, 1.08; under ACTCGTTTTG, 1.01. Under CGTGT stands 0.983; under CCGGCTGAGC, 0.978. With GTAGCCCGTT, the switch fluorescence ratio worked out at 1.03. In the case of CCTGGCTGTA it was 1.09. In the case of CCGGGAAACG, the switch fluorescence ratio came out at 1.04. Under GATGTCACAG stands 0.983; under CAAGTCAGAT, 0.989; under TCGGTGACAT, 1.01.

For GCCCCCATTA, the switch fluorescence ratio is 0.997. Turning to AGCCCGCGGA, the switch fluorescence ratio came to 1.

On to AGCCTTAAAC, for which the switch fluorescence ratio stood at 1.02. Under AATCCGAATA stands 1.34; under GGTATTGTAC, 1.03; under CAATGTGAT, 0.988.

With CGAAATGGTA, the switch fluorescence ratio was 0.94.

Turning to CGGGCGGCA, the switch fluorescence ratio came to 1.03.

In the case of TAAGTCATTT, the switch fluorescence ratio is 0.993.

As to TTAGCGGTTT, the switch fluorescence ratio is 1.05.

For ACCTTAAAGT, the switch fluorescence ratio worked out at 1.08.

Regarding TGTGTTGGGC, the switch fluorescence ratio was 0.977. As to CGCACAGGCA, the switch fluorescence ratio worked out at 1.06. Regarding TTTTGATGTC, the switch fluorescence ratio was 0.953. For GGGCGCACGT, the switch fluorescence ratio worked out at 0.983.

Regarding ATAATATTAT, the switch fluorescence ratio was determined as 0.993. In the case of ACGCTCAGAT it was 1.04. Turning to AACGGGTTTC, the switch fluorescence ratio worked out at 1.02.
